Data reported in the RNAGym collection of RNA variant scans (doi:10.7554/elife.90254).
Read counts are not given, so values of variants with three or more changes are uncertain.

B1: LINE1-mini (parent)
chain: GGCAGAGCUCAACACAGCGUGGCAAAGUGGCUGUGGCUAGACUGCC

Variants of: B1
Test: self-cleavage, relative activity (ratio to wild type); higher = more cleavage; in vitro, sequencing; the parent is a self-cleaving ribozyme

Variant	self-cleavage
G21U G27A A39G C45U	0.06
G22U G36A G40A	0.85
G21C A24C A25G C37U	0.02
G21U A24U G35U	0.07
G21C G33A C42A	0.04
U20G U32G G44C	0.03
C23A G27U C37A	0.04
G21U A24U G33A	0.11
G21C C23G G27C G29U G33U A41G C45U	0.12
G21U C23U A24G	1.05
U20C G33A G36U U38A	0.08
G21C U34G U43A G44C	0.01
C23A A25U U32C U43C	0.04
U20G C23U C45U	0.77
U20G C23U C45A	0.39
G22U A25G G35C U38C G40C	0
G22A A25G U34C	0.81
G21U G22U A24U	1.53
G21U C31U G35C U43A	0.01
G21U C23G A25G G44C	0.1
G22A U34G U38C	0.66
G22U G33U G40C C46U	0.03
G21C A25U A39C	0.1
G21A G22C G29U G35U G44C C45G C46U	0.01

Variant	self-cleavage
U20G C23A A25C	0.25
U20G G44A C45A C46U	0.02
G21U G33U G36A	0.05
G21U G27A G36C	0.09
G22A G36U A39U C42A U43C C46A	0.03
U20G G27C G30U U32C	0.07
U20G G35U A39C A41U G44C	0.06
G22C U34A G40U	0.31
U20C G30U U43A	0.02
G22U C23U G29C	0.25
G21C G36C C37G C46G	0.07
U20G G29A G36C	0.08
G22C C42A G44A	0.14
G22U C42G U43A	0
U20G C31A U43A	0.02
G21U G36C C45A	0.02
G22U A26G U43C	0.54
G22C C23A A26G U28G G30C	0.33
G22A A26C C37A C45A	0.02
U20G C31A C37U	0.03
G21U G30A C46A	0.42
G21A G27A C45A	1.32
G21C G33A G40C	0.03
U20G G33C C37U G40U U43A	0

Variant	self-cleavage
G22C C23U U28C	0.31
C23A C42G U43C	0.03
U20C G40C C45U	0.17
G22C G40U C46A	0.09
G22A A24U C37U A41C	0.01
G21U C23A G35U	0.34
G22C A24U A25C	0.14
G21C U43G C46U	0.03
G21C G29A C31G G35A	0.07
U20G U32C G36A G40A U43A	0.03
G21C C23U C31A G44C	0.04
U20G G30U G33U	0.04
U20C G30U C46A	0.12
U20G G36A A41G C46U	0.18
G21U G33A A41U	0.03
G21U G22C C31G G36U	0.08
G22U A26C U28A G30A	0.08
U20G A25C G30C G33A G35U G36C	0.16
G21U G22U C23A A39U	0.21
U20G G27C A41G	0.34
G22U C23G C46G	1.93
G22U G33A C45U	0.14
G22C C23U G36A G44C	0.05
G22A A26U C31A G35C	0.08

Variant	self-cleavage
U20G G21U C31U	0.08
G22C A24U A39U	0.36
G21U G30U C37A	0.04
G21U C23A G30A G33C	0.13
U20G C23A C46U	0.66
G21U U28G U32C	0.08
G22U G35U C37G	0.06
G21U A26G C37G A39U G40C	0.01
G21C A39G G40A	0.03
G21U G36U C45A	0.23
G21U A25C G29C	0.22
G21C G27A U32G	0.08
G22C G27A G29A	0.72
U20C G30C C42G	0.01
U20G A25G A39G	0.11
G22U U28A C31G	0.05
G21A G35U C37U A39U	0.06
C23A G27U C45G	0.32
U20G A24C A26C A39U	0.03
G22U A24C G29C	0.64
U20G A25U C37A C45U	0.02
G21C G27C G40C	0.14
G21C A25G G30A	0.73
G22U G27A U28A C31A C45A	0.13

Variant	self-cleavage
G21A A26U U38A	2.46
G21A C23U C31U C37G G44C	0.05
G22A G36C U43C	0.1
G22C G30U A41C	0.02
G21A G29C C31U G36U	0.21
G21U A25C A26C G27A U28G A39C	0.02
G21C G33U U34A G40C	0.02
G21A C37U A41U	0.04
G21U A41G G44C C46A	0.05
G21C U43G C45A	0
G22A U28C G35A	0.19
U20G A26U A39U	0.2
G22C A25U G35C	0.2
U20C U32A C46U	0.4
U20G U28G G30A	0.38
U20G U28A G36U C46G	0.2
G22U G27C C42U	1.26
C23A A24C G27U G33A U38A	0.08
G22C C23U G33U C46G	0.15
G22U U32A C37A U43G C46U	0.02
C23A A25U C45G	0.15
G21A G30A C31U	0.29
G22A G27C G36A U38C	0.08
G22C G35C G44C	0.03

Variant	self-cleavage
G21U G33A U34C G35C	0.02
G21A A25C G27U G40C G44C	0.07
C23A A25C A26G C42A C46U	0.04
C23A C31G U34A	0
G22U A24C C46U	0.31
G22U C23U G30C G35U	0.04
G22A G33C U38C	0.02
G21C G22U C42A	0.01
U20G U34C G40C	0
G21U U32A A39U	0.01
G22C G30C C42G	0.1
G21A A25U C37G	0.02
G22U G40U G44A	0.1
G21A C37G A39C U43C G44U	0.01
G22A C23A U43G	0.03
G22U A24C A41C C45A C46U	0.06
G22A U28C G29A	0.28
G22C G44C C46G	0
G21C G22U G44U	0.19
C23A C31U U34G A39G	0.01
G21U G29C C45A	0.48
G21C C23A C42U	0.39
U20G A25U C37G	0.02
U20G G40C A41C	0.03

Variant	self-cleavage
G22C G29C U38G	0.03
G21A G22U G40C	0.21
G21A G22C A26C G30A U32A	0.07
G21U A39C C42A	0.05
G22C U28A G29U	0.68
G22A C31A C45G	0.14
C23A A24C G40U	0.27
G21U U28A C37G	0.02
G21A C23G C37U	0.03
U20G C31U A39U A41G	0.03
G21U A26G U34C A39U	0.06
G21U U38G A41C	0.02
G21A U32C C37A	0.04
G22C C31U G44A	0.08
G21U A25U A41U C42G G44C	0.05
U20G G27U G29A	0.25
G21A A26U A41U	1.24
U20G G27U G30U A39U	0.34
G22A C37U C42A	0.1
G22C G33C G36A	0.02
G22C U34G C46A	0.01
G22A G27C U34G G40C	0.03
G21U C23G A41G	0.26
